According to PubChem BioAssay AID1508623 (National Center for Advancing Translational Sciences (NCATS), 2021):
Among all 48,000 compounds or so, about 450 (0.94%) were called active. About 19% were inconclusive and are not listed. Calls follow the shape of the dose curve; as a rule, active = well fitted inhibition curve with a large enough effect; inconclusive = small, poorly fitted or top-dose-only effect; inactive = no such curve, though single readings can be large or run the other way. The list shows a part of the results.

assay: Primary qHTS for Identification of Small Molecule Inhibitors of Huntingtin Promoter Activity; details: HEK293 HTT promoter firefly luciferase reporter (activity 0% = vehicle and -100% = no light), 24 h; series mostly up to 57.5 µM; activity change, negative = inhibition: at the top concentration; also: nearly all actives have a fitted effect of over 50% in size
Method in brief: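 HEK293 luciferase promoter-reporter cells (2,500/well) plated 24 h, then compounds added at up to 57.5 uM final for 24 h at 37 °C. Firefly luminescence by Dual-Glo, normalized to vehicle (0%) and zero RLU (-100%).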
Potency is read from the fitted curve at half-maximal effect.

Compound | activity change, negative = inhibition | Potency
COc1cccc(NC(=O)CSc2nnc3[nH]c(=O)cc(-c4ccccc4)n23)c1 | inactive: 12.1% | –
CCc1ccc(NS(=O)(=O)c2cc(Br)cc3c2N(C(C)=O)CC3)cc1 | inactive: -3.03% | –
COc1ccc(CCNc2oc(/C=C/c3ccc(OC)c(OC)c3)nc2C#N)cc1 | inactive: -23.1% | –
CC(C)NCC(O)COc1ccc(CCOCC2CC2)cc1 (stereo not given) | inactive | –
CN(C)c1ccc(C(CNC(=O)c2ccccc2Cl)N2CCc3ccccc32)cc1 (stereo not given) | inactive: 17.1% | –
O=C(COc1ccc(Cl)cc1)Nc1ccc(O)c(-c2nc3ccccc3s2)c1 | inactive: 16.3% | –
Cc1ccc(Cn2c(C(=O)O)c(CNCCc3cccs3)c3ccc(C)cc32)cc1 | inactive: -12.4% | –
O=C(NC1CC(=O)N(c2ccc(F)cc2)C1)c1ccc(S(=O)(=O)N2CCCC2)cc1 (stereo not given) | inactive: -12.5% | –
Cc1ccc(NC(=O)Nc2nc3c(s2)CCCCCC3)cc1C | inactive: -19.4% | –
COc1ccccc1NC(=O)c1ccc2[nH]c(C)cc(=O)c2c1 | inactive: 2.27% | –
O=c1c2sc3ccccc3c2n(Cc2ccccc2F)c(=O)n1-c1ccccc1Cl | inactive: -12.9% | –
COc1cccc(CNC(=O)CSc2nc3ccccc3nc2Cc2ccccc2)c1 | inactive: -18.4% | –
CCN(CC)S(=O)(=O)c1ccc2nc(NC(=O)c3ccccc3OC)sc2c1 | inactive: -32% | –
Cc1ccc2c(c1)cc(C(=O)NCc1ccc(F)cc1)n2C | inactive: 6.87% | –
COc1ccccc1N1CCN(c2ccc(=O)n(CC(=O)O)n2)CC1 | inactive: -12.5% | –
COc1cccc(CNc2ncnc3c2nnn3C)c1 | inactive: -17.9% | –
CNC(=O)C1CCC(Cn2c(=O)c3sccc3n(CC(=O)N3CCCC3)c2=O)CC1 (stereo not given) | inactive: -1.02% | –
COc1cccc(C2CC(=O)Nc3c2c(=O)[nH]c2ncnn32)c1OC (stereo not given) | inactive: -9.35% | –
CCN(C(=O)CSc1nc(-c2ccccc2)no1)c1cccc(C)c1 | – | active: 3.16 µM
CCc1nc(N)nc(N)c1-c1ccc(Cl)cc1 | inactive | –
CCOc1ccc(C2C(C(N)=O)=C(C)Nc3nc(-c4ccc(OC)cc4)nn32)cc1 (stereo not given) | inactive: 1.81% | –
O=C(C1CCN(S(=O)(=O)c2ccc(Br)s2)CC1)N1CCN(c2ccc(F)cc2)CC1 | inactive: -2.65% | –
COc1ccccc1C(=O)Nc1cccc(OCc2cc(=O)n3c4c(sc3n2)CCCC4)c1 | inactive: 3.05% | –
c1ccc2sc(SN3CCOCC3)nc2c1 | inactive: 4.84% | –
O=c1c2sc3ccccc3c2n(Cc2ccc(F)cc2)c(=O)n1Cc1ccco1 | inactive: -11.3% | –

Compound | activity change, negative = inhibition | Potency
Cc1cc2ccccc2n1CCNC(=O)c1ccccc1F | inactive: -14.3% | –
CC(C)c1ccc(S(=O)(=O)c2nnn3c2nc(NCc2cccs2)c2sccc23)cc1 | inactive: -6.14% | –
CC(=O)Nc1ccc(OC(=O)c2ccccc2OC(C)=O)cc1 | inactive: -4.58% | –
O=C(NCC(c1ccc2c(c1)OCO2)N1CCN(c2ccccc2)CC1)C(=O)Nc1ccccc1 (stereo not given) | inactive: -1.83% | –
O=C(OCc1cc(=O)n2nc(C3CC3)sc2n1)c1ccc(NC(=O)c2ccccc2Cl)cc1 | inactive: -26.4% | –
CCc1ccc2oc(C(=O)Nc3cc(Cl)ccc3OC)cc(=O)c2c1 | inactive: -0.153% | –
Cc1c(C(=O)Nc2ccccc2)sc2nc(-c3cc4ccccc4oc3=O)[nH]c(=O)c12 | inactive: 4.09% | –
Fc1ccc(Nc2nc(-c3cccc(Cl)c3)c3c(n2)-c2ccccc2OC3)cc1 | inactive: -12.3% | –
CC(=O)[C@@]1(O)CC[C@H]2[C@@H]3C[C@H](C)C4=CC(=O)C=C[C@]4(C)[C@@]3(F)[C@@H](O)C[C@@]21C | inactive: 7.68% | –
O=C(Nc1cccc(C(=O)N2CCN(c3ccccc3)CC2)c1)c1nsc2ccccc12 | inactive: -18.7% | –
CCOc1ccc(CNC(=O)C2CCN(S(=O)(=O)c3cn(C)cn3)CC2)cc1OC | inactive: -16.6% | –
COc1cccc(CN2C(=O)CN(C3CCCCC3)C(=O)C2c2ccc(OC)c(OC)c2)c1 (stereo not given) | inactive: -1.9% | –
COc1ccc2c(c1)c1c(c(=O)n(-c3ccccc3C)c(=O)n1CC(=O)N1CCCC1)n2C | inactive: -13.4% | –
COc1ccc(-c2cc(C(F)(F)F)c(C#N)c(SCC(=O)Nc3ccccc3F)n2)cc1 | inactive: -7.15% | –
COc1ccc(-n2c(/C=C/c3c(C)[nH]c4ccccc34)nc3ccccc3c2=O)cc1 | inactive: -6.13% | –
COc1cccc(CNc2nccn(-c3ccc(OC)c(OC)c3)c2=O)c1 | inactive: -4.72% | –
Cc1nn(C)c2c1c(-c1ccccc1)cc(=O)n2Cc1ccc(Cl)cc1 | inactive: 0% | –
COc1ccccc1C(=O)Nc1ccc(OCc2cc(=O)n3ccc(C)cc3n2)cc1 | inactive: 0.631% | –
O=C(Cn1c2ncccc2c(=O)n1-c1ccccc1)Nc1ccc(Cl)cc1C(F)(F)F | inactive: 11.9% | –
COc1ccc(C)cc1-n1c(-c2ccc(C)cc2)cc2c1CC(C)(C)CC2=O | inactive: 12.5% | –
COCc1cc(C)nc2sc3c(c12)NC(c1ccc(O)cc1)N(c1ccc(C)cc1)C3=O (stereo not given) | inactive: -20.1% | –
O=C(OCc1cccc(C(F)(F)F)c1)c1ccc(-c2nnn(Cc3ccc(F)cc3)n2)cc1 | inactive: -13.7% | –
Cc1nn(C(=O)c2ccccc2)c(C)c1S(=O)(=O)N1CCCCCC1 | inactive: -11% | –
CCN(C(=O)c1cn(-c2ccc(OC)cc2)c(=O)c2ccccc12)c1cccc(Cl)c1 | inactive: -25% | –
CCn1c(=N)c(C(=O)NC2CCCC2)cc2c(=O)n3ccccc3nc21 | inactive: 2.59% | –
